Values come from read counts of a selection and are noisy.
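Note: shRNA barcodes quantified by deep sequencing of PCR amplicons from cellular DNA, counts expressed as percent of each subpool, ratio averaged over two biological duplicates.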

The series concerns NB7. Put plainly: fold depletion of shRNA, plasmid library share / infected cells without Dox share (9 days) (ratio); higher = more depleted after infection (more toxic, leaky expression from a Tet-inducible vector; NB7 is a neuroblastoma line without caspase-8). The note with it: shRNA pool: CD95 ORF + CD95 3'UTR + Venus libraries.
For the sequence CCTTAGAAATTCTAGCCTGGT, the “fold depletion of shRNA” value worked out at 0.578.
The result for AAGGTTCTCATGAATCTCCAA reads 3.95.
The result for CGACTTCAAGGAGGACGGCAA reads 1.76.
On to CGCTGAAGAGCCAACATATTT, for which the “fold depletion of shRNA” value was determined as 2.48.
As for CACATAGAAAACATTAAATTA, the “fold depletion of shRNA” value was 0.786.
As for TGCTGGGCATCTGGACCCTCC, the “fold depletion of shRNA” value is 0.595.
The result for TCTTAATAGCTGGCTGTAAAT reads 2.08.
The result for ACTTGGAAGGCCTGCATCATG reads 0.42; that for ACATGGTCCTGCTGGAGTTCG, 1.16.
Turning to CTAGAGCTTTGCCACCTCTCC, the “fold depletion of shRNA” value worked out at 0.714.
Turning to AATTCTAGAGATTTTACCATA, the “fold depletion of shRNA” value is 0.782.
Take CGAGGGCGACACCCTGGTGAA: the “fold depletion of shRNA” value is 0.534.
Take TATCATTTATTAGCGCTGAAG: the “fold depletion of shRNA” value amounted to 2.46.
The result for CGACGGCCCCGTGCTGCTGCC reads 0.391; that for GGTGTCATATTATACAATATT, 0.715; that for AGAAATAATATTTATATTTCT, 0.982.
Regarding AATGTAATCAGTGTATGTTAG, the “fold depletion of shRNA” value is 1.38.
Take GCAATGGTAAAATCATCATCT: the “fold depletion of shRNA” value amounted to 3.28.
As for AGAAAGCACAGAAAGGAAAAC, the “fold depletion of shRNA” value amounted to 1.67.
The result for TGTTTAAAATCTAGTTGGGAA reads 1.46; that for ACTTTGCCTCTAAATTACCTC, 1.35; that for ACCCCCAAACATGGAAATATC, 0.802.
As for TTGTTTGGGTGAAGAGAAAGG, the “fold depletion of shRNA” value came to 0.907.
ACCTACGGCAAGCTGACCCTG: the “fold depletion of shRNA” value stood at 0.936.
As to CATGTCATGAACCCATGTTTG, the “fold depletion of shRNA” value amounted to 1.42.
For GGTAAAAGTACGTAATTAAAT, the “fold depletion of shRNA” value was found to be 1.48.
On to AAGTTCGAGGGCGACACCCTG, for which the “fold depletion of shRNA” value was 1.42.
With CACAGTCAATGGGGATGAACC, the “fold depletion of shRNA” value worked out at 1.04.
For the sequence CGCATCGAGCTGAAGGGCATC, the “fold depletion of shRNA” value stood at 0.452.
The result for TGCAGATGTAAACCAAACTTT reads 0.676; that for TACGTCTGTTGCTAGATTATC, 5.24.
The result for TCGGCGACGGCCCCGTGCTGC reads 0.531; that for AAAGATTAAGATTATGCTCTG, 1.19; that for TGCTCTTGTCATACCCCCAAG, 4.41.
As for TGCCCTGCCAAGAAGGGAAGG, the “fold depletion of shRNA” value stood at 0.718.
Regarding AGTGCTTCGCCCGCTACCCCG, the “fold depletion of shRNA” value was found to be 2.34.
Consider TCTATGAATCAATAGAAGAAG, for which the “fold depletion of shRNA” value was 0.882.
Take AAATTTATCTGATGTTGACTT: the “fold depletion of shRNA” value was 0.834.
For TCCTGAAACAGTGGCAATAAA, the “fold depletion of shRNA” value amounted to 0.87.
As for ATGCCCGAAGGCTACGTCCAG, the “fold depletion of shRNA” value amounted to 1.73.
As for AATCTTTGTACTCTTGCAGAG, the “fold depletion of shRNA” value is 1.08.
GTGAACATGGAATCATCAAGG: the “fold depletion of shRNA” value stood at 3.04.
The result for ATCTTTGTACTCTTGCAGAGA reads 0.815.
As for TCAATTGTGAATTCACATAGA, the “fold depletion of shRNA” value was determined as 0.701.
With TACGGCCTGCAGTGCTTCGCC, the “fold depletion of shRNA” value was determined as 0.315.
With TCATATTTATGTAAAGTATAT, the “fold depletion of shRNA” value turned out to be 0.708.
As to CCTCTCCATTTTTGCCTTGGT, the “fold depletion of shRNA” value was determined as 3.9.
Regarding AATATTTATATTTCTGTAAAT, the “fold depletion of shRNA” value turned out to be 1.24.
In the case of AACATATGATTCTGTAGTATG, the “fold depletion of shRNA” value was 1.48.
The result for GTACTCTTGCAGAGAAAATTC reads 0.93.
With AGTGACTGACATCAACTCCAA, the “fold depletion of shRNA” value was 7.57.
With AAAGCTAGGGACTGCACAGTC, the “fold depletion of shRNA” value worked out at 0.568.
Regarding TGTTACTACAGTTGAGACTCA, the “fold depletion of shRNA” value was determined as 2.18.
The result for CTCTTGCAGAGAAAATTCAGA reads 0.803; that for TGAATGTAATCAGTGTATGTT, 1.06.
As to TCTTTGTACTCTTGCAGAGAA, the “fold depletion of shRNA” value was found to be 0.601.
CGTAATTAAATAATGTTTTTG: the “fold depletion of shRNA” value came to 0.509.
Take AGTTTCTAAGATTTAAGATTC: the “fold depletion of shRNA” value is 0.687.
As to AACCCATGTTTGCAATCAAAG, the “fold depletion of shRNA” value turned out to be 2.15.
Regarding CCGAAAATGTTCAATAATGTC, the “fold depletion of shRNA” value is 1.02.
Regarding AAATGAAATCCAAAGCTTGGT, the “fold depletion of shRNA” value turned out to be 2.81.
Turning to CACAGCAGAACAGAAAGTTCA, the “fold depletion of shRNA” value was 0.669.
In the case of ATTATCGTCCAAAAGTGTTAA, the “fold depletion of shRNA” value came out at 1.18.
Take ATCTCAAAAAAGCCAATCTTT: the “fold depletion of shRNA” value turned out to be 0.707.
As for GAAAGGAAGTACAGAAAACAT, the “fold depletion of shRNA” value was found to be 0.752.
On to ACTGTGAAGATAGTTATAAAC, for which the “fold depletion of shRNA” value was found to be 0.991.
Take CCAACATATTTGTAGATTTTT: the “fold depletion of shRNA” value amounted to 1.31.
As for GAACAGAAAGTTCAACTGCTT, the “fold depletion of shRNA” value came to 2.53.

Source of the values: the supplement of paper PMC5655136.
